This is one part of the list.
These sequences were tested against T1, FOXC2 DBD WT (UniProt Q99958 72-172) (assay: SELEX-seq (GST pull-down, four rounds, 16-nt random library); pH 7.0; 20 mM HEPES, 140 mM KCl, 0.05 mM TCEP-HCl, pH 7.0, room temperature, 30 min; 2.5 uM GST-FOXC2 DBD, 0.25 uM DNA library; high values mean tight binding). Settings: protein: recombinant; tags: N-terminal GST (pGEX-6P-2); dsDNA, one strand shown.
T1 sequence: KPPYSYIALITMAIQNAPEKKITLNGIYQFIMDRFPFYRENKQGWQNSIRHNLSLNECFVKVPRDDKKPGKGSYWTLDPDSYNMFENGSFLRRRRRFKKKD
How it was run: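 GST-tagged FOXC2 DNA-binding domain (E. coli-expressed, glutathione-purified) was incubated with a DNA library carrying a 16 bp randomized region, at 0.25 μM DNA and 2.5 μM protein, for 30 min at RT in 20 mM HEPES, 140 mM KCl, 0.05 mM TCEP–HCl, pH 7. Complexes were captured on glutathione Sepharose beads, washed, heat-eluted and PCR-amplified over four rounds. Initial and selected libraries were Illumina MiniSeq sequenced. Relative enrichment came from the Bioconductor SELEX R package.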
Work on ATTTCA yielded a binding signal of 0.293 relative enrichment.
TTGAAA showed a binding signal of 0.229 relative enrichment.
In the case of AATATG, the binding signal is reported as 0.282 relative enrichment.
In the case of ATATTC, the binding signal is reported as 0.477 relative enrichment.
ATACCA was tested, and the binding signal was 0.401 relative enrichment.
Work on AACACG yielded a binding signal of 0.457 relative enrichment.
Work on CTGTAA yielded a binding signal of 0.281 relative enrichment.
Sequence CAGTCA has a binding signal of 0.518 relative enrichment.
With AATTGT the binding signal was 0.427 relative enrichment.
Sequence TATATA has a binding signal of 0.427 relative enrichment.
For TACCAC, the binding signal was 0.564 relative enrichment.
For TCCCAA, the binding signal was 0.374 relative enrichment.
ATGTGC was tested, and the binding signal was 0.332 relative enrichment.
For ACTCAA, the binding signal was 0.294 relative enrichment.
AACAGA was tested, and the binding signal was 0.308 relative enrichment.
Sequence TATCGA has a binding signal of 0.449 relative enrichment.
Work on ATAGAA yielded a binding signal of 0.4 relative enrichment.
Work on CTTACA yielded a binding signal of 0.35 relative enrichment.
GGATAA was tested, and the binding signal was 0.319 relative enrichment.
In the case of ACCTTA, the binding signal is reported as 0.322 relative enrichment.
ACATAC was tested, and the binding signal was 0.334 relative enrichment.
With GTTTCA the binding signal was 0.278 relative enrichment.
In the case of CCAATT, the binding signal is reported as 0.305 relative enrichment.
Sequence CTCAAC has a binding signal of 0.306 relative enrichment.
CTTCTG gave a binding signal of 0.655 relative enrichment.
Work on ACAGTG yielded a binding signal of 0.32 relative enrichment.
Work on CAAACC yielded a binding signal of 0.348 relative enrichment.
With AAACGA the binding signal was 0.433 relative enrichment.
CCGCTT showed a binding signal of 0.566 relative enrichment.
CCACAT gave a binding signal of 0.378 relative enrichment.
Work on ACAGAA yielded a binding signal of 0.352 relative enrichment.
CTCATT gave a binding signal of 0.311 relative enrichment.
Work on TCTTAC yielded a binding signal of 0.583 relative enrichment.
TTCATG gave a binding signal of 0.466 relative enrichment.
ACATGA showed a binding signal of 0.366 relative enrichment.
For AAGATT, the binding signal was 0.302 relative enrichment.
GCCTTG gave a binding signal of 0.432 relative enrichment.
CATTCG gave a binding signal of 0.647 relative enrichment.
Sequence CTCTAA has a binding signal of 0.497 relative enrichment.
Sequence TCTAAA has a binding signal of 0.362 relative enrichment.
With CCTACA the binding signal was 0.52 relative enrichment.
AATCCG was tested, and the binding signal was 0.396 relative enrichment.
Work on ACCACA yielded a binding signal of 0.308 relative enrichment.
TACAAA was tested, and the binding signal was 0.279 relative enrichment.
Work on GTTTAA yielded a binding signal of 0.412 relative enrichment.
With ACTCGT the binding signal was 0.431 relative enrichment.
ATAGTG showed a binding signal of 0.381 relative enrichment.
Work on ATAACG yielded a binding signal of 0.234 relative enrichment.
TTCTCA showed a binding signal of 0.402 relative enrichment.
CTCAAA gave a binding signal of 0.338 relative enrichment.
For AGAAAA, the binding signal was 0.341 relative enrichment.
With GGTCAA the binding signal was 0.577 relative enrichment.
With ATCACA the binding signal was 0.311 relative enrichment.
CCGGTT gave a binding signal of 0.383 relative enrichment.
TTCCCT was tested, and the binding signal was 0.474 relative enrichment.
AAGCCT showed a binding signal of 0.404 relative enrichment.
Work on ATTAAC yielded a binding signal of 0.24 relative enrichment.
For CCCTAA, the binding signal was 0.411 relative enrichment.
Work on AGCAAC yielded a binding signal of 0.284 relative enrichment.
For CCTCAT, the binding signal was 0.455 relative enrichment.
Work on ATTAAT yielded a binding signal of 0.302 relative enrichment.
With GTAAAA the binding signal was 0.244 relative enrichment.
For CCAAAC, the binding signal was 0.36 relative enrichment.
For CGTCTT, the binding signal was 0.521 relative enrichment.
For CTATCA, the binding signal was 0.419 relative enrichment.
In the case of AAACTA, the binding signal is reported as 0.325 relative enrichment.
In the case of ATTCGA, the binding signal is reported as 0.503 relative enrichment.
ACAAGG was tested, and the binding signal was 0.32 relative enrichment.
For ACCCAT, the binding signal was 0.43 relative enrichment.
ACATCT was tested, and the binding signal was 0.382 relative enrichment.
ATAGCA showed a binding signal of 0.284 relative enrichment.
With ACCCTA the binding signal was 0.499 relative enrichment.
Work on AGCGTA yielded a binding signal of 0.542 relative enrichment.
ACATCC was tested, and the binding signal was 0.44 relative enrichment.
In the case of TCGTAA, the binding signal is reported as 0.409 relative enrichment.
In the case of AGTAAT, the binding signal is reported as 0.428 relative enrichment.
AAATTG gave a binding signal of 0.254 relative enrichment.
With TGCCTT the binding signal was 0.37 relative enrichment.
With AGTTTG the binding signal was 0.37 relative enrichment.
Sequence CACAAA has a binding signal of 0.496 relative enrichment.
ACTAAC showed a binding signal of 0.301 relative enrichment.
In the case of AATACC, the binding signal is reported as 0.425 relative enrichment.
CAAAGG gave a binding signal of 0.381 relative enrichment.
Sequence AATACT has a binding signal of 0.328 relative enrichment.
Work on ATGCAA yielded a binding signal of 0.311 relative enrichment.
For CTTGAA, the binding signal was 0.459 relative enrichment.
AGCTTG gave a binding signal of 0.361 relative enrichment.
With AGTGAT the binding signal was 0.481 relative enrichment.
With GACTTA the binding signal was 0.52 relative enrichment.
Sequence TCAAAA has a binding signal of 0.256 relative enrichment.
TCAATC gave a binding signal of 0.416 relative enrichment.
AGACAT gave a binding signal of 0.369 relative enrichment.
With TCTACA the binding signal was 0.446 relative enrichment.
With CTTCAA the binding signal was 0.481 relative enrichment.
For ATAAGA, the binding signal was 0.307 relative enrichment.
For CTGATA, the binding signal was 0.36 relative enrichment.
Work on AGTTAA yielded a binding signal of 0.271 relative enrichment.
TATCAA was tested, and the binding signal was 0.376 relative enrichment.
ATAGTA was tested, and the binding signal was 0.304 relative enrichment.
AAGTAC showed a binding signal of 0.447 relative enrichment.
In the case of GGTAAA, the binding signal is reported as 0.489 relative enrichment.
ATTCAG gave a binding signal of 0.454 relative enrichment.
Sequence ACTTTG has a binding signal of 0.358 relative enrichment.
Sequence AGATAC has a binding signal of 0.416 relative enrichment.
Sequence CTTGGT has a binding signal of 0.411 relative enrichment.
TATTCA showed a binding signal of 0.336 relative enrichment.
Work on ACTGAA yielded a binding signal of 0.437 relative enrichment.
Work on CCAGTT yielded a binding signal of 0.378 relative enrichment.
In the case of AAATTC, the binding signal is reported as 0.343 relative enrichment.
ACATAT showed a binding signal of 0.476 relative enrichment.
In the case of GTCTAA, the binding signal is reported as 0.372 relative enrichment.
ACGTAA gave a binding signal of 0.385 relative enrichment.
In the case of AAACGG, the binding signal is reported as 0.363 relative enrichment.
TCTGAT was tested, and the binding signal was 0.388 relative enrichment.
TATTAA gave a binding signal of 0.302 relative enrichment.
AACTCT gave a binding signal of 0.274 relative enrichment.
AACTTG showed a binding signal of 0.349 relative enrichment.
In the case of ATATAA, the binding signal is reported as 0.218 relative enrichment.
For TCTATC, the binding signal was 0.361 relative enrichment.
Sequence ACGTCA has a binding signal of 0.506 relative enrichment.
TCCTTG showed a binding signal of 0.369 relative enrichment.
Work on GCATTA yielded a binding signal of 0.334 relative enrichment.
Sequence ACAGAG has a binding signal of 0.418 relative enrichment.
ACTAAT was tested, and the binding signal was 0.328 relative enrichment.
AATGCT showed a binding signal of 0.3 relative enrichment.
In the case of AATCGA, the binding signal is reported as 0.377 relative enrichment.
CAATCA gave a binding signal of 0.4 relative enrichment.
ATATGC was tested, and the binding signal was 0.286 relative enrichment.
In the case of CTAAAG, the binding signal is reported as 0.401 relative enrichment.
With TATGAA the binding signal was 0.387 relative enrichment.
ACCATA was tested, and the binding signal was 0.358 relative enrichment.
In the case of AAAGAA, the binding signal is reported as 0.336 relative enrichment.
Sequence TTACCC has a binding signal of 0.469 relative enrichment.
Sequence ACTCTC has a binding signal of 0.499 relative enrichment.
With TCCAAA the binding signal was 0.348 relative enrichment.
TCACTG was tested, and the binding signal was 0.414 relative enrichment.
In the case of AGAACA, the binding signal is reported as 0.241 relative enrichment.
Work on AACTGT yielded a binding signal of 0.213 relative enrichment.
For CTCTTG, the binding signal was 0.394 relative enrichment.
For ATCGGT, the binding signal was 0.436 relative enrichment.
With ACGACA the binding signal was 0.264 relative enrichment.
In the case of ACTTTA, the binding signal is reported as 0.273 relative enrichment.
AAAATA was tested, and the binding signal was 0.439 relative enrichment.
Work on ATATAC yielded a binding signal of 0.28 relative enrichment.
Work on CCTTAA yielded a binding signal of 0.358 relative enrichment.
In the case of ATTAAG, the binding signal is reported as 0.403 relative enrichment.
ACCACT was tested, and the binding signal was 0.588 relative enrichment.
In the case of CCGATT, the binding signal is reported as 0.357 relative enrichment.
Work on AGCTAT yielded a binding signal of 0.288 relative enrichment.
Work on ACTCTA yielded a binding signal of 0.386 relative enrichment.
Sequence ACTGAT has a binding signal of 0.368 relative enrichment.
In the case of AGACAA, the binding signal is reported as 0.271 relative enrichment.
With AGCCTA the binding signal was 0.371 relative enrichment.
With GTGTCA the binding signal was 0.372 relative enrichment.
ATAGCG showed a binding signal of 0.407 relative enrichment.
TATTGA showed a binding signal of 0.511 relative enrichment.
Sequence CATAGC has a binding signal of 0.422 relative enrichment.
With CATAAG the binding signal was 0.406 relative enrichment.
ACGAAT gave a binding signal of 0.379 relative enrichment.
CAAAAC gave a binding signal of 0.33 relative enrichment.
Work on ACCTAA yielded a binding signal of 0.327 relative enrichment.
For ATTTAA, the binding signal was 0.337 relative enrichment.
In the case of ATACTA, the binding signal is reported as 0.334 relative enrichment.
ACTACT gave a binding signal of 0.459 relative enrichment.
In the case of AAGTGT, the binding signal is reported as 0.298 relative enrichment.
CTTATC was tested, and the binding signal was 0.378 relative enrichment.
Work on CAATGC yielded a binding signal of 0.376 relative enrichment.
ACAGCC was tested, and the binding signal was 0.39 relative enrichment.
Sequence ATTTCG has a binding signal of 0.454 relative enrichment.
For AATTAG, the binding signal was 0.241 relative enrichment.
In the case of CCCTAT, the binding signal is reported as 0.389 relative enrichment.
In the case of AATTCA, the binding signal is reported as 0.336 relative enrichment.
Sequence AATCTG has a binding signal of 0.283 relative enrichment.
GTAAAC showed a binding signal of 0.561 relative enrichment.
CCCTTT was tested, and the binding signal was 0.402 relative enrichment.
Work on CGTTCT yielded a binding signal of 0.485 relative enrichment.
Sequence CCGTTG has a binding signal of 0.343 relative enrichment.
In the case of CAGCAA, the binding signal is reported as 0.292 relative enrichment.
TACACA was tested, and the binding signal was 0.394 relative enrichment.
AAGCAA gave a binding signal of 0.496 relative enrichment.
Work on TCGCTT yielded a binding signal of 0.407 relative enrichment.
Sequence GCCATA has a binding signal of 0.387 relative enrichment.
TAACCA gave a binding signal of 0.353 relative enrichment.
For CAATAG, the binding signal was 0.291 relative enrichment.
Work on AATTGC yielded a binding signal of 0.3 relative enrichment.
AACCTG was tested, and the binding signal was 0.314 relative enrichment.
TAAGTA gave a binding signal of 0.459 relative enrichment.
CAAAAA was tested, and the binding signal was 0.267 relative enrichment.
AAGAAT gave a binding signal of 0.372 relative enrichment.
With TTCCAT the binding signal was 0.426 relative enrichment.
Work on GGCAAA yielded a binding signal of 0.313 relative enrichment.
Sequence TAGCCT has a binding signal of 0.397 relative enrichment.
TTCCTA gave a binding signal of 0.364 relative enrichment.
Sequence CGAAAA has a binding signal of 0.303 relative enrichment.
ATTTTG was tested, and the binding signal was 0.27 relative enrichment.
For ACGCAA, the binding signal was 0.314 relative enrichment.
With ACTACA the binding signal was 0.297 relative enrichment.

Source: paper PMC12135187, “A role for pH dynamics regulating transcription factor DNA-binding selectivity”
